# Test results from PubChem BioAssay (Tox21).
# Where “and” joins values, the source holds several entries; their conditions need not be identical. Equal values may be shown once. The inconclusive results got no clear call from the source; some entries with a clear call stand among them for comparison. A call without a number means that no potency is given here. For some of these results: A potency beside an inconclusive call is a rough fit, not a confirmed value. Calls of active or inactive are those of the source. Unless noted, the call rests on the fitted dose curve; in most records, active means well fitted curve in the direction sought with a large enough effect in the repeat runs; inconclusive means weak or mixed curves; inactive means no such curve, though single readings can be large; an effect the other way counts as inactive or inconclusive.
# Legend:
# [1] = qHTS assay to identify small molecule antagonists of the estrogen related receptor (ERR) signaling pathway from Tox21 library (AID 1224848); further: nearly all actives have a fitted effect of over 50% in size; further: potency means the concentration at half of the fitted maximal effect
# How it was run: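 Luciferase luminescence (ONE-Glo, 30 min room temperature) was the read-out. Cells of the NTP-supplied ERR line, 2,000 per well, were given 6 h at 37 C before compound addition in DMSO and 18 h exposure at 37 C.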
# [2] = biological target: Glucocorticoid receptor (Homo sapiens) (UniProt P04150); assay: qHTS assay to identify small molecule agonists of the glucocorticoid receptor (GR) signaling pathway (AID 720691; active means well fitted activation curve with a large enough effect in the signal ratio in the repeat runs, not every such curve was filed as active; inconclusive means weak or mixed curves, or effect the other way; inactive means no such curve, though single readings can be large or run the other way; the % refers to the signal ratio); conditions: GR-bla HeLa, beta-lactamase reporter ratio, 18 h; activation: at 62.4 µM (top of the series) unless noted
# Sequence of UniProt P04150 (P04150 whole entry, looked up): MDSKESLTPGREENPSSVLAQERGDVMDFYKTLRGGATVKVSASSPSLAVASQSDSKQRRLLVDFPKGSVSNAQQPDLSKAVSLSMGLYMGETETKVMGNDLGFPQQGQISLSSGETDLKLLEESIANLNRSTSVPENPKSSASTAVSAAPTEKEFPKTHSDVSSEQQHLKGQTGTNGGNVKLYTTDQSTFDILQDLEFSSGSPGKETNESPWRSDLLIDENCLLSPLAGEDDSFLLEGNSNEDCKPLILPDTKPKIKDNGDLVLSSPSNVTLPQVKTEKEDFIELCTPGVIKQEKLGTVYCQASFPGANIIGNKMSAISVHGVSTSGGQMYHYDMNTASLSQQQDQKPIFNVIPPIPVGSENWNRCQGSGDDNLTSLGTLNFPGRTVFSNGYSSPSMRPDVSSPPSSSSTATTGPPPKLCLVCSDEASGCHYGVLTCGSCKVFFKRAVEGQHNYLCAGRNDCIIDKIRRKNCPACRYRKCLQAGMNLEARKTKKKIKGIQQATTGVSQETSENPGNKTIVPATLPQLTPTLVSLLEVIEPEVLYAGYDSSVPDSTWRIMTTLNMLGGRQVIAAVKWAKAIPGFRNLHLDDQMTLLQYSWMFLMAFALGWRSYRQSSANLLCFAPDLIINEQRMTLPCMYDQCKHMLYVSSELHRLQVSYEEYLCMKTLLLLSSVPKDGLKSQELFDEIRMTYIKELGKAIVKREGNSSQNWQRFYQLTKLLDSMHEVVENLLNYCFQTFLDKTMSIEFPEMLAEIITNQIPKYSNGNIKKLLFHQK
# How it was run: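 Measures GR pathway activation through a GRE-beta-lactamase reporter stably integrated in HeLa cells, with 18 h compound treatment at 37 C and fluorescence detection using a FRET substrate.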
# [3] = biological target: Androgen receptor (Homo sapiens) (UniProt P10275); assay: qHTS assay to identify small molecule agonists of the androgen receptor (AR) signaling pathway (AID 743036; active means well fitted activation curve with a large enough effect in the signal ratio in the repeat runs, with a control signal flat, not every such curve was filed as active; inconclusive means weak or mixed curves, or effect the other way; inactive means no such curve, though single readings can be large or run the other way; the % refers to the signal ratio); conditions: HEK293 AR-UAS-bla GripTite, beta-lactamase FRET ratio, 16 h; activation: at 62.4 µM (top of the series) unless noted
# Sequence of UniProt P10275 (P10275 whole entry, looked up): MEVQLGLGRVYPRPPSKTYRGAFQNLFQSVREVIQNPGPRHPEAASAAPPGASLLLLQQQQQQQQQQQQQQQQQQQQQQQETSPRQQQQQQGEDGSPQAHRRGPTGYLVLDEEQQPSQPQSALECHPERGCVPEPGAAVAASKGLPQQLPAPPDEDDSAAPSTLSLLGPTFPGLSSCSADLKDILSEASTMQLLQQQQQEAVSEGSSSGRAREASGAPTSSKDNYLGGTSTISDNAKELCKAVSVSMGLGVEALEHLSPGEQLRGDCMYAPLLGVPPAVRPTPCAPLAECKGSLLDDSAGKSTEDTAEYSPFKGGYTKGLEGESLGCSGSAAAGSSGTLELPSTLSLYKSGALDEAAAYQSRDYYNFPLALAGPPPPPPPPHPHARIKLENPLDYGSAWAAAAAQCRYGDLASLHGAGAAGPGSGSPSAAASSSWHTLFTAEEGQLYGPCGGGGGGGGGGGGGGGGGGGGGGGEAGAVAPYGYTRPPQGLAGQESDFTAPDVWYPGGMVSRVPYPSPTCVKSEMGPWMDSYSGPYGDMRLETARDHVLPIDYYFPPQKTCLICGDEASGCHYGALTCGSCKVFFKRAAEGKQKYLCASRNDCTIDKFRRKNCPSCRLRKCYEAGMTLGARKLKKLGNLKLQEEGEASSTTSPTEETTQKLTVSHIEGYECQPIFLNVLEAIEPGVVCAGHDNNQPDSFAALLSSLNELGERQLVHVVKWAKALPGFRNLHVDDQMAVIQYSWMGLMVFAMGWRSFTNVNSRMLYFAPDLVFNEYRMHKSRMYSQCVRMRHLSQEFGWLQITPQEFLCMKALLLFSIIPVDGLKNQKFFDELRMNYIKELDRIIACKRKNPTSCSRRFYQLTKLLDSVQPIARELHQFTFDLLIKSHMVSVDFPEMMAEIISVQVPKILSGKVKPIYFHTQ
# How it was run: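 AR-UAS-bla HEK293 cells, plated 4 h before dosing, were treated with compound for 16 h at 37C. beta-Lactamase reporter read after 2 h with LiveBLAzer B/G FRET substrate at room temperature.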
# [4] = qHTS RealTime-Glo MT Cell Viability Assay in HepG2 cells - 0 hour (AID 1224889); further: nearly all actives have a fitted effect of over 50% in size; further: potency means the concentration at half of the fitted maximal effect
# How it was run: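 Viability was tracked continuously by NanoLuc luminescence from prosubstrate reduced by living HepG2 cells, at successive time points over 40 h of compound exposure. Cells with reagent were preincubated 5 h at 37 °C before compound addition.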
# [5] = qHTS RealTime-Glo MT Cell Viability Assay in HEK293 cells - 0 hour (AID 1224880); further: top concentration of the series differs between compounds; nearly all actives have a fitted effect of over 45% in size
# How it was run: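 HEK293 + NanoLuc + prosubstrate, 600 cells/well; 5 h, 37 C/5% CO2; compound 23 nL in DMSO by pintool; 37 C; luminescence read at 0, 8, 16, 24, 32 and 40 h time points.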
# [6] = A CellTox Green Cytotoxicity Assay to monitor cytotoxicity in HepG2 cells - 8 hour (AID 1224890); further: nearly all actives have a fitted effect of over 45% in size; further: potency means the concentration at half of the fitted maximal effect
# How it was run: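 Measurements at 0, 8, 16, 24, 32 and 40 h of treatment captured CellTox Green fluorescence in HepG2 cells that had been co-plated with reagent and preincubated 5 h at 37 C/5% CO2.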
# [7] = biological target: Estrogen receptor (Homo sapiens) (UniProt P03372); assay: qHTS assay to identify small molecule antagonists of the estrogen receptor alpha (ER-alpha) signaling pathway using the BG1 cell line in the presence of 0.1 nM 17-beta-estradiol (AID 1259244); further: nearly all actives have a fitted effect of over 50% in size; further: potency means the concentration at half of the fitted maximal effect
# Sequence of UniProt P03372 (P03372 whole entry, looked up): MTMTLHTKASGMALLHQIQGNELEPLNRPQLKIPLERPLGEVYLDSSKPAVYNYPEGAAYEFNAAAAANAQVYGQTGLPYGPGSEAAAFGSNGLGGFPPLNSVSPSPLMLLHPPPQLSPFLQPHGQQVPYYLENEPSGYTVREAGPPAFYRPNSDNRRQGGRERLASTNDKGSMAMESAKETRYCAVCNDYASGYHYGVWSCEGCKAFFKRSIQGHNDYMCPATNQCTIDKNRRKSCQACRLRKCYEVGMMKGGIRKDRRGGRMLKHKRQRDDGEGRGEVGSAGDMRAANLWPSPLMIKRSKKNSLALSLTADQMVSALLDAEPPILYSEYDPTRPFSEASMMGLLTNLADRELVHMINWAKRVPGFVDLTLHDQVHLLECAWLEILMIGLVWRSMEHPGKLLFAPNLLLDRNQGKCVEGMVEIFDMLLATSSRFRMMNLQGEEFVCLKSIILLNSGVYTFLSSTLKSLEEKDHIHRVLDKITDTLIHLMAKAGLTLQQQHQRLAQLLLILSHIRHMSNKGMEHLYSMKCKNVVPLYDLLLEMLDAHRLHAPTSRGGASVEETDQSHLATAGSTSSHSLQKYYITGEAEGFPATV
# How it was run: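 Compounds were tested against 0.1 nM (final) 17beta-estradiol in VM7Luc4E2 cells, which express full-length ER-alpha and an ERE-luciferase reporter; luminescence was recorded following 22 h exposure.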
# [8] = biological target: Bile acid receptor (Homo sapiens) (UniProt Q96RI1); assay: qHTS assay to identify small molecule antagonists of the farnesoid-X-receptor (FXR) signaling pathway (AID 743217; active means well fitted inhibition curve with a large enough effect in the signal ratio in the repeat runs, not every such curve was filed as active; inconclusive means weak or mixed curves, or effect the other way; inactive means no such curve, though single readings can be large or run the other way; the % refers to the signal ratio; further: potency means the concentration at half of the fitted maximal effect); conditions: HEK293T FXR-UAS-bla, beta-lactamase ratio, CDCA-stimulated, 16 h; activity change, negative = inhibition: at 62.6 µM (top of the series) unless noted
# Sequence of UniProt Q96RI1 (Q96RI1 whole entry, looked up): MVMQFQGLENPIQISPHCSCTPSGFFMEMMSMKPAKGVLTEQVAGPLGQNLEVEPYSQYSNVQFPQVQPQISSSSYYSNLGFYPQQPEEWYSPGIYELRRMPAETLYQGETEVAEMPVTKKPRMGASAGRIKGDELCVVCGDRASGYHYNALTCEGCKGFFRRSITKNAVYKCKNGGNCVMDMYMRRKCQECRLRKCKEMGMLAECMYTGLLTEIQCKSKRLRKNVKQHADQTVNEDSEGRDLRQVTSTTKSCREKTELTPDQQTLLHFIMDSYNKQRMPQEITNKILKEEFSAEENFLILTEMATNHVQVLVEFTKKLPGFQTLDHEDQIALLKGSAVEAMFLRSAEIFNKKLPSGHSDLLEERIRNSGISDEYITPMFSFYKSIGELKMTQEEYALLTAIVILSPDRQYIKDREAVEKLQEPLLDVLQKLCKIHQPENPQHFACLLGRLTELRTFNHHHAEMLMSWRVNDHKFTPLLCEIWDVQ
# How it was run: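 Quantitative HTS, beta-lactamase reporter format: FXR-UAS-bla HEK 293T cells co-treated 16 h at 37 °C with compounds and 50 uM final chenodeoxycholic acid, then read by B/G FRET fluorescence.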
# [9] = A CellTox Green Cytotoxicity Assay to monitor cytotoxicity in HEK293 cells - 40 hour (AID 1224871); further: nearly all actives have a fitted effect of over 45% in size; further: potency means the concentration at half of the fitted maximal effect
# How it was run: (§1)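 Tox21 screen in HEK293: membrane-impermeant cyanine dye fluoresces on binding dead-cell DNA; compound pinned 5 h post-seeding, plates held at 37 C, signal read repeatedly through 40 h.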
# [10] = A CellTox Green Cytotoxicity Assay to monitor cytotoxicity in HEK293 cells - 24 hour (AID 1224875); further: nearly all actives have a fitted effect of over 45% in size; further: potency means the concentration at half of the fitted maximal effect
# How it was run: as §1
# [11] = qHTS assay to identify small molecule antagonists of the androgen receptor (AR) signaling pathway using the MDA cell line - cell viability counter screen (AID 743041; further: nearly all actives have a fitted effect of over 45% in size; further: potency means the concentration at half of the fitted maximal effect); conditions: MDA-kb2 viability, CellTiter-Fluor, 16 h, cells co-treated with R1881 androgen agonist; viability change, negative = cytotoxic: at 70.3 µM (top of the series)
# How it was run: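 Viability read by CellTiter-Fluor fluorescence in the same wells as the antagonist screen, added after 15.5 h of a 16 h, 37C exposure. Human breast carcinoma MDA-kb2 AR-luc cells, compounds co-dosed with agonist R1881.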
# [12] = qHTS assay for small molecule agonists of the antioxidant response element (ARE) signaling pathway - cell viability counter screen (AID 743203; calls by dose curve; further: nearly all actives have a fitted effect of over 55% in size; further: potency means the concentration at half of the fitted maximal effect); conditions: ARE-bla HepG2 viability, CellTiter-Glo luminescence, 16 h; viability change, negative = cytotoxic: at 73.3 µM (top of the series)
# How it was run: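 Parallel cytotoxicity read-out for the ARE-bla screen: HepG2 reporter cells, 16 hrs with compounds, then CellTiter-Glo luminescence.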
# [13] = A CellTox Green Cytotoxicity Assay to monitor cytotoxicity in HEK293 cells - 32 hour (AID 1224881); further: nearly all actives have a fitted effect of over 40% in size; further: potency means the concentration at half of the fitted maximal effect
# How it was run: as §1
# [14] = qHTS assay to identify small molecule antagonists of the androgen receptor (AR) signaling pathway using the MDA cell line in the presence of 0.5 nM R1881 - cell viability counter screen (AID 1259242); further: nearly all actives have a fitted effect of over 45% in size; further: potency means the concentration at half of the fitted maximal effect
# How it was run: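 Concentration-response screen of compounds for toxicity in MDA-kb2 reporter cells: 16 hr at 37C with 0.5 nM R1881, endpoint live-cell protease fluorescence measured in the reporter wells.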
# [15] = qHTS assay for small molecules that induce genotoxicity in human embryonic kidney cells expressing luciferase-tagged ATAD5 - cell viability (AID 651634; calls by dose curve; further: nearly all actives have a fitted effect of over 25% in size; further: potency means the concentration at half of the fitted maximal effect)
# How it was run: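 15.5 hr compound or vehicle exposure of HEK293T cells expressing luciferase-tagged ATAD5 at 37C; live-cell protease activity is read by fluorescence after 30 min of CellTiter-Fluor.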
# [16] = biological target: Vitamin D3 receptor (Homo sapiens) (UniProt P11473); assay: qHTS assay to identify small molecule agonists of the vitamin D receptor (VDR) signaling pathway (AID 743222; calls by dose curve); conditions: HEK293T VDR-UAS-bla, beta-lactamase FRET ratio, 16 h; activation: at 63.5 µM (top of the series) unless noted
# Sequence of UniProt P11473 (P11473 whole entry, looked up): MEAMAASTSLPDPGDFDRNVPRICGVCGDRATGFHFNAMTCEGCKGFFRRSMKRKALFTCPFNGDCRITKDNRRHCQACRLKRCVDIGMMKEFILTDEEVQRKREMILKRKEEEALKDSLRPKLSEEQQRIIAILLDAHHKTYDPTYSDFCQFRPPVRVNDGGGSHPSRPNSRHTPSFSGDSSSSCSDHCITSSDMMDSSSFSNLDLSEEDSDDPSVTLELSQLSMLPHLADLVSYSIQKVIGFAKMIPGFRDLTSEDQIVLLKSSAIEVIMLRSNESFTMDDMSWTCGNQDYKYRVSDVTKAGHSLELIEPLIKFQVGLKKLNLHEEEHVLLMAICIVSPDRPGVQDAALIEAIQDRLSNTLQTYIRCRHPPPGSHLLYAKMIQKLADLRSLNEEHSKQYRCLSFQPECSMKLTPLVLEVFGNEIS
# How it was run: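 Using LiveBLAzer B/G FRET detection, agonism was scored in VDR-bla cells exposed overnight (16 h, 37C) to DMSO-dissolved compounds; substrate incubation was 2 h at room temperature.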
# [17] = biological target: Bile acid receptor (Homo sapiens) (UniProt Q96RI1); assay: qHTS assay to identify small molecule agonists of the farnesoid-X-receptor (FXR) signaling pathway (AID 743220; active means well fitted activation curve with a large enough effect in the signal ratio in the repeat runs, not every such curve was filed as active; inconclusive means weak or mixed curves, or effect the other way; the % refers to the signal ratio; further: potency means the concentration at half of the fitted maximal effect); conditions: HEK293T FXR-UAS-bla, beta-lactamase FRET ratio, 16 h; activation: at 62.6 µM (top of the series)
# How it was run: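 FXR-UAS-bla HEK 293T cells carrying a UAS-driven beta-lactamase reporter were plated for 5 h at 37C/5% CO2, then exposed to DMSO-dissolved Tox21 10K compounds for 16 h at 37C. A LiveBLAzer B/G FRET substrate was loaded for 2 h at room temperature before fluorescence reading.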
# [18] = qHTS assay to identify small molecule antagonists of the estrogen receptor beta (ER-beta) signaling pathway - cell viability counter screen (AID 1259382); further: nearly all actives have a fitted effect of over 55% in size; further: potency means the concentration at half of the fitted maximal effect
# How it was run: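 Readout: luminescence, CellTiter-Glo, same wells as bla assay. System: ER-beta-UAS-bla GripTite HEK293T, 2% charcoal-stripped FBS. Exposure: compounds plus 1nM 17-beta-estradiol, 16 hr, 37C.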
# [19] = A CellTox Green Cytotoxicity Assay to monitor cytotoxicity in HEK293 cells - 16 hour (AID 1224888); further: potency means the concentration at half of the fitted maximal effect; nearly all actives have a fitted effect of over 35% in size
# How it was run: as §1
# [20] = qHTS assay to identify small molecule agonists of the hypoxia (HIF-1) signaling pathway - cell viability counter screen (AID 1224844; calls by dose curve; further: nearly all actives have a fitted effect of over 50% in size)
# How it was run: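 HRE-bla ME-180; 0.5% dFBS; cpd 17 h, 37C, 5% CO2; CellTiter-Glo lum., 30 min RT, post-FRET read, same wells.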
# Tags describe the fitted curve by direction and shape or compound fluorescence and quenching.
compound,measurement,setting,value
NC(=O)CN1CCCC1=O,Potency,[1],inactive
CCNc1nc(Cl)nc(NC(C)(C)C)n1,Potency,[2],inactive
same,Potency,[3],inactive
same,Potency,[4],inactive
COC(=O)c1ccc(CBr)cc1,Potency,[5],inactive
CCOP(=S)(OCC)Oc1nc(Cl)n(C(C)C)n1,Potency,[6],inactive
CCCCc1c(C)nc(NCC)nc1OS(=O)(=O)N(C)C,Potency,[7],"inconclusive: 27.3 µM [inhibitor, partial curve]"
Clc1ccc(C2(Cn3cncn3)CC(Br)CO2)c(Cl)c1 (configuration not stated),Potency,[8],"inconclusive: 13.7 µM [inhibitor, single point]"
same,Potency,[9],inactive
same,Potency,[10],"inconclusive: 12.2 µM [activator, full curve, poor fit]"
CCOC1Oc2ccc(OS(C)(=O)=O)cc2C1(C)C (configuration not stated),Potency,[11],"inconclusive: 76.3 µM [cytotoxic, single point]"
same,Potency,[12],"inconclusive: 76.3 µM [rising, partial curve, poor fit]"
same,Potency,[13],inactive
CCCCc1c(C)nc(NCC)[nH]c1=O,Potency,[9],inactive
O=c1[nH]c2ccccc2n1C1CCNCC1,Potency,[7],inactive
C=C(C)CCl,Potency,[3],inactive
CCS(=O)(=O)CCSP(=O)(OC)OC,Potency,[14],inactive
CCOC(=O)C(SP(=S)(OC)OC)c1ccccc1 (configuration not stated),Potency,[8],inactive
same,Potency,[4],"inconclusive: 49 µM [cytotoxic, partial curve]"
Nc1ncc([N+](=O)[O-])s1,Potency,[15],"inconclusive: 49 µM [falling, partial curve]"
same,activation,[16],inconclusive: -9.9% [fluorescent]
same,Potency,[14],"inconclusive: 49 µM [cytotoxic, partial curve, poor fit]"
Cn1c(-c2ccccc2)cc(-c2ccccc2)[n+]1C,activation,[2],inconclusive: 2.76% [phenotype inactive]
same,Potency,[9],"inconclusive: 54.8 µM [activator, single point]"
same,Potency,[14],"inconclusive: 12.2 µM [cytotoxic, full curve] and inconclusive: 43.3 µM [cytotoxic, partial curve]"
NC(=S)C(N)=S,Potency,[11],inactive
same,Potency,[1],"inconclusive: 48.6 µM [inhibitor, partial curve]"
same,Potency,[13],"inconclusive: 0.195 µM [activator, partial curve, poor fit]"
CNCC(O)c1ccc(O)cc1 (configuration not stated),Potency,[17],"inconclusive: 61.6 µM [rising, partial curve, poor fit]"
same,Potency,[6],inactive
same,Potency,[7],inactive
Cc1cnc(C2=NC(C)(C(C)C)C(=O)N2)c(C(=O)O)c1 (configuration not stated),Potency,[18],inactive
CCN(CC)CCN1C(=O)CN=C(c2ccccc2F)c2cc(Cl)ccc21,Potency,[15],"inconclusive: 23.7 µM [falling, partial curve, poor fit]"
same,Potency,[5],inactive
[Cl][Sn]([Cl])([Cl])[Cl],Potency,[9],"inconclusive: 5.01 µM [activator, single point]"
same,Potency,[10],"inconclusive: 7.08 µM [activator, partial curve, poor fit]"
same,Potency,[5],inactive
same,Potency,[13],"inconclusive: 7.08 µM [activator, partial curve, poor fit]"
same,Potency,[19],"inconclusive: 19.9 µM [activator, single point]"
O=C(O)Cc1ccccc1,Potency,[10],inactive
O=[N+]([O-])c1ccc([As](=O)(O)O)cc1,Potency,[20],inactive
CC(C)CCCCCCCOC(=O)c1ccccc1C(=O)OCCCCCCCC(C)C,Potency,[6],inactive
CCOP(=S)(Oc1ccc([N+](=O)[O-])cc1)c1ccccc1 (configuration not stated),Potency,[11],inactive
OC[C@@H](O)[C@H]1O[C@@H]2O[C@H](C(Cl)(Cl)Cl)O[C@@H]2[C@H]1O,Potency,[20],inactive
CCC/C=N/O,Potency,[7],inactive
COc1ccc(-c2ccccc2)cc1NNC(=O)OC(C)C,Potency,[15],"inconclusive: 56.8 µM [falling, partial curve, poor fit]"
same,activation,[3],inconclusive: 22.3% [at 79.1 µM]
same,Potency,[8],inconclusive: 64.2 µM
same,Potency,[9],"inconclusive: 64.2 µM [activator, single point]"
same,Potency,[10],"inconclusive: 57.2 µM [activator, partial curve, poor fit]"
same,Potency,[13],"inconclusive: 57.2 µM [activator, single point]"
same,Potency,[18],"inconclusive: 80.2 µM [cytotoxic, single point]"
Clc1cccc(C(Cl)(Cl)Cl)n1,Potency,[9],"inconclusive: 48.6 µM [activator, single point] and inconclusive: 49 µM [activator, single point]"
same,Potency,[10],"inconclusive: 54.5 µM [activator, single point]"
same,Potency,[13],"inconclusive: 48.6 µM [activator, single point]"
same,Potency,[6],"inconclusive: 54.5 µM [activator, single point]"
CCCC[N+](=O)[O-],Potency,[13],"inconclusive: 4.86 µM [activator, single point]"
ClC(Cl)c1ccccc1,Potency,[16],inactive
CC(C)CBr,Potency,[10],inactive
same,Potency,[13],inactive
COP(=O)(CCC(=O)NCO)OC,Potency,[1],inactive
CN1C(=O)CCS(=O)(=O)C1c1ccc(Cl)cc1 (configuration not stated),Potency,[12],inactive
same,Potency,[16],inactive
same,Potency,[14],inactive
CCOP(=S)(OCC)SCSc1ccc(Cl)cc1,Potency,[15],inactive
N#Cc1ccncc1,Potency,[20],inactive
same,Potency,[10],inactive
CNC(=O)Oc1ccccc1C(C)C,Potency,[3],inactive
same,Potency,[7],inactive
C[C@@H](Oc1ccc(Cl)cc1Cl)C(=O)O,Potency,[6],inactive
Cc1cccc(C)c1NC1=NCCCS1,Potency,[15],inactive
same,Potency,[12],inactive
same,Potency,[20],inactive
CCCCn1cc[n+](C)c1C,Potency,[10],inactive
CC1(C)COP(Oc2ccccc2)OC1,Potency,[3],inactive
OCc1ccco1,"activity change, negative = inhibition",[8],inconclusive: -1%
same,activation,[16],inconclusive: -0.824%
CCSC(C)CC1CC(=O)C(/C(CC)=N/OC/C=C/Cl)=C(O)C1 (configuration not stated),Potency,[1],inactive
same,Potency,[9],inactive
C=CC(Cl)CCl (configuration not stated),Potency,[4],"inconclusive: 22.4 µM [rising, single point]"
CCCSC(=O)Cl,Potency,[8],inactive
same,Potency,[6],inactive
